Here are results for 13 molecules from PubChem BioAssay (NCATS).

The list shows a part of the results. Further columns of the screen follow, without active or inactive calls. Most of these compounds were active or inconclusive in the main read-out, so they are no random draw. Potencies come from curve fits of mixed quality, noted in brackets.
Tags tell the direction and shape of the fitted curve.

A short description of the assay: Cell-based coincidence reporter assay to measure PMP22 gene transcription in S16 Pmp22-F2sN cells - Confirmatory screen (AID 1508646). To be noted: S16 Schwann cells Pmp22-F2sN, dual luciferase, 24 h; measured here: NLuc reporter channel. A digest of the protocol:
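S16 rat Schwann cells carrying FLuc-2A-NLuc reporter in Pmp22 3' UTR (500-1,000 cells/well) treated with pinned compounds for 24 h at 37C. Dual-luciferase reads: FLuc luminescence first, then NLuc after Stop&Glo.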
As for `CCN1CCN(CCCNC(=O)c2ccc3c(c2)sc2nc(-c4ccc(C)cc4)cn23)CC1`, the AC50 is 17.2 µM [falling, partial curve].

Take `COc1cccc(NC(=O)N(Cc2cn(C)c3ccccc23)C2CCCCC2)c1`: the AC50 is 21.7 µM [falling, partial curve].

Regarding `Cn1nnnc1SCCNCc1cc(Br)ccc1OCc1ccccc1Cl`, the AC50 is 24.3 µM [falling, partial curve].

On to `CCCCn1c(=O)c2oc3ccccc3c2n(CC(=O)Nc2ccc(CC)cc2)c1=O`, for which the concentration at half-maximal activity (AC50) is 24.3 µM [falling, partial curve].

Regarding `CCOC(=O)c1c(NC(=O)c2ccc(S(=O)(=O)N3CCC(C)CC3)cc2)sc2c1CCN(C)C2`, the AC50 is 19.3 µM [falling, partial curve].

For `Cc1ccc(-c2c(C)n3c4c(=O)n(C)c(=O)n(C)c4nc3n2-c2cccc(O)c2)cc1`, the concentration at half-maximal activity (AC50) was 30.6 µM [falling, partial curve, poor fit].

For `CCc1ccc(OCC(=O)Nc2cc3oc4ccccc4c3cc2OC)cc1`, the AC50 was 17.2 µM [falling, partial curve].

With `CCN(CC)c1cc(C)c2cc(NC(=O)/C=C/c3ccccc3Cl)ccc2n1`, the AC50 was 24.3 µM [falling, partial curve].

`O=C(Nc1nc2ccc(F)cc2s1)c1nc(S(=O)(=O)Cc2ccccc2F)ncc1Cl`: the half-maximal activity concentration (AC50) is 12.2 µM [falling, partial curve].

Consider `Cc1cc(Nc2cccc(Br)c2)n2c(nc3ccccc32)c1C#N`, for which the AC50 is 43.2 µM [falling, single point].

Turning to `O=C(CSc1nc2ccsc2c(=O)n1-c1ccc(Br)cc1)NCc1ccc(Cl)cc1`, the half-maximal activity concentration (AC50) was 19.3 µM [falling, partial curve].

As to `CCCCOc1ccc(CN2C(=O)C(=O)c3cc(C)ccc32)cc1OC`, the AC50 is 24.3 µM [falling, partial curve].

With `COc1cc(/C=C(\C#N)c2nc3ccccc3[nH]2)ccc1OCc1ccccc1F`, the AC50 is 17.2 µM [falling, partial curve, poor fit].

The term AC50 denotes the concentration giving half of the maximal activity seen. High values mean activity only at high concentration, low ones activity at low concentration.
